The source gives no read counts; variants with many changes may rest on few reads.
B1: LINE1-full (parent)
chain: UACGUAGGUGGUUUUCCCCUGAUAGUGCUAAGGGGGCCUGGAAGUUUGGACUGGGCAGAGCUCAACACAGCGUGGCAAAGUGGCUGUGGCUAGACUGCCUCUCUGGAUUCCUCGUCACUCAGCAGGGCAUCUCUGAGAGAAAUGCC

Variants of: B1
Experiment: self-cleavage, relative activity (ratio to wild type); higher = more cleavage; in vitro, sequencing; the parent is a self-cleaving ribozyme

Row | Variant | self-cleavage
1 | UACGUAGGUGGUUUUCCCCUGAUAGUGCUAUGGGGGCCUGGAAGUUUGGACUGGGCAGGGCUCAACACAGCGUGGCAAAGUGGCUGUGGCUAGACUGCCUCUCUGGAUUCCUUGUCUCCCAGCAGGGCAUCUCUGAGAGAAAUGCC | 0.13
2 | UACGUAGGUGGUUGUCCCCUGAUAGUGCUAAGGGGGCCUGGAAGUUUGGACUGGGCAGAGCUCAACACAGCGUGGCAAAGUGGCUGUGGCUAGACUGCCUCUCUGGAAUCCUCGACACUCAGCAGAGCAUCUCUGAGAGGAAUGCC | 1.59
3 | UACGUAGGUGGUUUUCCCCUGAUAGUGCAAAGGGGGCCUGGAGGUUUGGACUGGGCAGAGCUCAACACAGCGUGGCAAAGUGGCUGUGGCUAGACUGCCUCUCUGGAUUCCUCGUCACUCAGCAGGGCAUCUCUGAGAGAAAAGCC | 0.45
4 | UACGUAGGUGGUUGUCCCCUGAUAGUGCUAAGGGGGCCCGGAAGUUUGGACUGGGCAGAGCUCAACACAGCGUGGCAAGGUGGCUGUGGCUAGACUGCCUCUCUGGAUUCCUCGUCACUCAGCAGGGCAUCUCUGAGAGAAAUGCC | 1.41
5 | UAUGUAGGUGGUUUUCCCCUGAUAGUGCUAAGGGGGCCUGGAAGUUUGGACUGGGCGGAGCUCAACACAGCGUGGCAAAGUGGCUGUGGCUAGACUGCCUCUCUGGAUUCCUCGUCACUCAGCAGGGCAUCUCUGAGAGGAAUGCC | 0.22
6 | UACGUAGGUGGUUUUCCCCUGAUAGAGCUAAGGGGGCCUGGAAGUUUGGACUGGGCAGAGCUCAACACAGCGUGGCAAAGUGGCUGUGGCUAGACUGCCUCUCUGGUUUCCUCGUCACUCAGCAGGGCAUCUCUGAGAGAGAUGCC | 1.24
7 | UACGUAGGUGGCUUUCCCCUGAUAGUGCUAAGGGGGCCUGGAAGUUUGGACUGGGCAAAGCUCAACACUGCGUGGCAAAGUGGCUGUGGCUAGACUGCCUCUCUGAAUUCCUCGUCACUCAGCAGGGCAUCUCUGAGAGAAAUGCC | 0.05
8 | UACGUAGGUGGUUUUCCCCUGAUAGUGCUAAGGGGGCCUGGAAGUUGGGACUGGGCAGAGCUCAACACAGCGUGGCAGAGUGGCUGUGGCUAGACUGCCUCUCUGGAUUCCUCGUCCCUCAGCAGGGCAUCUCUGAGAGAGAUGCC | 1.41
9 | UACGUAGGUGGUCUUCCCCUGAUAGUGCUAAGGGGGCCUGGAAGUUUGGGCUGGGCAGAGCUCAACACAGCGUGGCAAAGUGGCUGUGGCAAGACUGCCUCUCUGGAUUCCUCGUCACUCAGCAGGGCAUCUCUGAGAGAAAUGCC | 0.92
10 | UACGUAGGUGGUUUUCCCCUGAUAGUGCUAAGGGGGCCUGGGAGUUUGGACUGGGCAGAGCUCAACACAGCGUGGCAAAGUGGCUGUGGCUAGACUGCCUCUCUGGUUUCCUCGUCACCCAGCAGGGCAUCUCUGAGAGAAAUGUC | 0.73
11 | UACGUAGGUGGUCUUCCCCUGAUAGUGCUAAGGGGGCCUGGAAGUUUGGACUGGGCAGAGCUCAACACAGCGUGGCAAAGUGGCUGUGGCUAGGCUGCCCCUCUGGAUUCCUCGUCACUCAGCAGGGCAUCUCUGAGAAAAAUGCC | 0.48
12 | UACGUAGGUGGCUUUCCCCCGAUAGUGCUAAGGGGGCCUGGAAGUUUGGACCGGGCAGAGCUCAACACAGCGUGGCAGAGUGGCAGUGGCUAGACUGCCUCUCUGGAUUCCUCGUCACUCAGCAGGGCAUCUCUGAGAGAAAUGCC | 0.24
13 | UACGUAGGUGGUUUUCCCCUGAUAGUGCUAAAGGGGCCUGGAAGUUUGGACUGGGCAGAGCUCAACACAGCGUGGCAAAGUGGCCGUGGCUAGACUGCCUCUCUGGAUUCCACGUCACUCAGCAGGGCAUCUCUGAGAGAAAUGCC | 0.12
14 | UACGUAGGUAGUCUUCCCCUAAUAGUGCUAAGGGGGCCUGGAAGUCUGGACUGGGCAGAGCUCAACACAGCGUGGCAAAGUGGCUGUGGCUAGACUGCCUCUCUGGAUUCCUCGUCACUCAGCAGGGCAUCUCUGAGAGAAAUGCC | 0.78
15 | UACGUAGGAGGUUUUCCCCUGAUAGAGCUAAGGGGGCCUGGGAGUUUGGACUGGGCAGAGCUCAACACAGCGUGGCAAAGUGGCUGUGGCUAGACUGCCUCUCUGGAUUCCUCGUCACUCAGCAGGGCAUCUCUGAGAGAAAUGCC | 0.63
16 | UACGUAGGUGGUUUUCCCCUGAUAGUGCUAAGGGGGCCUGGAAGAUUGGACUGGGCAGAGCUCGACACAGCGUGGCAAAGUGGCUGUGGCUAGACUGCCUCUCUGGAUUCCUCGACACUCAGCAGGGCAUCCCUGAGUGAAAUGCC | 0.24
17 | UACGUAGGUGGUUUUCCCCUGGUAGUGCUAAGGGGGCCAGGAAGUUUGGGCUGGGCAGAGCUCAACACAGCGUGGCAAAGUGGCUGUGGCUAAACUGCCUCUCUGGAUUCCUCGUCACUCAGCAGGGCAUCUCUGAGAGAAAUGCC | 0.14
18 | UACGUAGGCGGUUUUCCCCUGAUAGUGCUAAGGGGGCCUGGAAGUUUGGACUGGGCAGAGCUCAACACAGCGUGGCAAAGUGGCUGUGGCUAGACUGCCUCCCUGGAUUCCUCGUCACUCAGCAGGGCAUCUCAGAGAGAAAUGCC | 1.16
19 | CACGUAGGUGGUUUUCCCCUGAUAGUGCUAAGGGGGCCUGGAAGUUUGGACUGGGCAGAGCUCAACACAGCGUGGCUAAGUGGCUGUGGCCAGACUGCCUCUCUGGAUUCCUCGUCACUCAGCAGGGCAUCUCUGAGAGAAACGCC | 0
20 | UACGUAGGUGGUUUUCCCCUGAUAGUGCUAAGGAGGCCUGGAAGUUUGGACUGGGCAGAGCUCAACACAGCGCGGCAAAGUGGCUGUGGCUAGACUGCCUCUCUGGAUUCCUCGUCACUCAGCAGGGCUUCUCUGAGAGAAAUGCC | 1.53

Row | Variant | self-cleavage
21 | UACGUAGGUGGUUUUCCCCUGAUAGUGCCAAGGGGGCCUGGAAGUUUGGACUGGGCAGUGCUCAACACAGCGUGGCAAAGUGGCAGUGGCUAGACUGCCUCUCUGGAUUCCUCGUCACUCAGCAGGGCAUCUCUGAGAGAAAUGCC | 0.12
22 | UACGUAGGUGGUUUUCCCCUGAUAGUGCUAAGGGGGCCUGGAAGUUUGGACUGGGCAGAGCUCAACGCAGCGUGGCGAAGUGGCUGUGUCUAGACUGCCUCUCUGGAUUCCUCGUCACUCAGCAGGGCAUCUCUGAGAGAAAUGCC | 0.05
23 | UACGUAGGUGGUUUUCCCCUGAUAGUGCUAAGGGGGCCUGGAAGUUUGGACUGGGCAGAGCUCAACACAGCGAGGCAAAGUGGCUGUGGCUAGACAGCCUCUCUGGGUUCCUCGUCGCUCAGCAGGGCAUCUCCGAGAGAAAUGCC | 0
24 | UACGUAGGUGGUUUUCCCCUGAUAGUGCUAAGGGGGCCUGGGAGAUUGGACUGGGCAGAGCUCAACACAGCGUGGCAAAGUGGCUGUGGCUAGACUGCCUCUCUGGAUUCCCCGUCACUCAGCAGGGCAUCUCUGAGAGAAAUGCC | 1.16
25 | UACGUAGGUGGUUUUUCCCUGAUAGUGCUAAGGGGGCCUGGAAGUUUGGACUGGGCAGAGCCCGACACAGCGUGGCAAAGUGGCUGUGGCUAGACUGCCUCUCUGGAUUCCUCGUCACUCAGCAGGGCAUCUCUGAGAGAAAUGCC | 0.04
26 | UACGUAGGUGGUUUUCCCCUGAUAGUGCUAAGGGGGCCUGGAAGUCUGGACUGGGCAGAGCUCAACACAGCGUGGCAAAGUGGCUGUGGCUAGACUGCCUCUCCGGAUUCCUCGUCACACAGCAGGGCAUCUCUGAGAGAAAUGCC | 1.47
27 | UACGUAGGUGGUUUUCCCCUGAUAGUGCUAAGGGGGCCUGGAAGUUCGGACUGGGCAGAGCUCAACACAGCGUGGCAAAGUGGCUGUGGCUAGACUGCCUCUCUGGAUUCCUCGUCACUCAGCAGGGCAUCUCUGAGAGAAACGAC | 2.02
28 | UACGUAGGUGGUUUUCCCCUGAUAGUGCUAAGGGGGCCUGGAGGUAUGGACUGGGCAGAGCUCAACACAGCGUGGCAAAGUGGCUGUGGCUAGUCUGCCUCUCUGGAUUCCUCGUCACUCAGCAGGGCAUCUCUGAGAGAAAUGCC | 0.15
29 | UACGUAGGUGGUUCUCCCCUGAUAGUGCUAAGGGGGCCUGGAAGUUUGGACUGGGCAGAGCUCAACACAGCGAGGCAUAGUGGCUGUGGCUAGACUGCCUCUCUGGAUUCCUCGUCACUCAGCGGGGCAUCUCUGAGAGAAAUGCC | 1.39
30 | UACGUAGGUGGUUUUCCCCUGAUAGUGCUAAGGGGGCCUGGAAGUUUGGACUGGGCAGAGCCCAACACAGCGCGGCAAAGUGGCUGUGGCUAGACUGCCUCUCUGGAUUCCUCGUCACUCAGCAGGGCACCUCUGAGAGAAAUGCC | 0.12
31 | UACGUAGGUGGUAUUCCCCUGAUAGUGCUAAGGGGGCCUGGAAGUUUGGACUGGGCUGAGCUCAACACAGCGUGGCAAGGUGGCUGUGGCUAGACUGCCUCUCUGGAUUCCUCGUCACUCAGCAGGGCAUCUCUGAGGGAAAUGCC | 0.04
32 | UACGUAGGUGGUUUUCCCCUGAUAGUGCUAAGGGGGCCUGGAAGUUUGGACUGGGCAGAGCUCAACACAGCGUGGCAAAGAGGCCGUGGCUAGACUGCCUCUCUGCAUUCCUCGUCACUCAGCAGGGCAUCUCUGAGAGAAAUGCC | 0.14
33 | UACGUAGGUGGCGUUCCCCUGAUAGUGCUAAGGGGGCCUGGAAGUUUGGACUGGGCAGAGCUCAACACAGCGUGGCAAAGUGGCUGUGGCUAGACUGCCUCUCUGGAUUCCUCGUCACUCAGCAGGGCAUCUCUGCGAGAAAUGCC | 0
34 | UACGUAGGUGGUUUUCCCCCGAUAGUGCUAAGGGGGCCUGGAAGUCUGGACCGGGCUGAGCUCAACACAGCGUGGCAAAGUGGCUGUGGCUAGACUGCCUCUCUGGAUUCCUCGUCACUCAGCAGGGCAUCUCUGAGAGAAAUGCC | 0.49
35 | UACGUAGGUGGUUUUCCCCUGAUAGUGCUAAGGGGGCCUGGAAGUUUGGACUGGGCAGAGCUCAACACAGGGUGGCUAAGUGGCUGUGCCCAGACUGCCUCUCUGGAUUCCACGUCACUCAGCAGGGCAUCUCUGAGAGAAAUGCC | 0.05
36 | UACGUAGGUGGUUUUCCCCUGAUAGUGCUAAGGGGGCCUGGAAGUUUGGACUGGGCAGAGCUCAGCACAGCGUGGCAAAGUGGCAGUGGCUAGACCGCCUCUCUGGAUUCCUCGUCACUCAGCAGGGCAUCUCUGAGAGAAAUGCC | 0.18
37 | UACGUAGGUGGUUCUCCCCUGAUAGUGCUAAGGGGGCCUGGAAGUUUGGACUGGGCAGAGCUCAACUCAGCGUGGCAAAGUGGCUGUGGCUAGACUGCCUCUCUGGAUUCCUCGUCACUCAGCAGGGCAUCUCUGAGAGAAGUGCC | 0.08
38 | UACGUAGGUGGUUCUCCCCUGAUAGUGCUAAGGGGGCCUGGAAGUUUGGACUGGGCAGAGCUAAACACAGCGUGGCAAAGUAGCUGUGGCUAGGCUGCCUCUCUGGAUUCCUCGUCACUCAGCAGGGCAUCUCUGAGAGAAGUGCC | 0.03
39 | UACGUAGGUGGUUUACCCCUGAUAGCGCUAAGGGGGCCUGGAAGUUUGGACUGGGCAGAGCUCAACACAGCGUGGCAAAGUGGCUGUGGCUAGACUGCCUCUCUGGAUUCCUCGUCACUCAGCAGGGCAUCUUUGAGAGAAAUGCC | 1.24

— the RNAGym collection of RNA variant scans (doi:10.7554/elife.90254)
